Our source for the self-cleavage values is the RNAGym collection of RNA variant scans (doi:10.7554/elife.90254).

The source gives no read counts; variants with many changes may rest on few reads.

The labels stand for the following.
B1: OR4K15 (parent)
chain: GUUAACGGUCAUAGGCCAUGGAAACUAGGAGCACCAUUUCGCUGCCAGUGAAGAAAUGAACAAAGAAAAUCUGGGCCAGGCAGGCAUCAAAAGAAAUAGUCUUGCGCUCAACCAGAAAGUCUGUAAUCAUUUUAAGGGUA

The variants in the data set derive from B1. Kind of data set: self-cleavage, relative activity (ratio to wild type); higher = more cleavage; in vitro, sequencing; the parent is a self-cleaving ribozyme.
In the case of U26A A47G U72G, the self-cleavage was 0.53.

Consider U26C U38A A98G, for which the self-cleavage was determined as 0.79. The result for G28A U49A A91G U108C reads 0.01; that for U26C C40U A91G, 0.79; that for U26C A51U A114U, 0.09. Take A24U A110G U120C: the self-cleavage stood at 0.07. Consider G28A A54U A96G U108C A126U, for which the self-cleavage was found to be 0. Consider U26C A51G U72C A111U U120A U131C, for which the self-cleavage was determined as 0.01. Take A27G C81U U102C U103C U139C: the self-cleavage is 0.07. With A24G U43A A54G, the self-cleavage is 1.85. With A24G U38C U100A, the self-cleavage was 1.13. As for A27U A66G A86U U120A, the self-cleavage was found to be 1.97. Regarding A24G A92G A116G, the self-cleavage turned out to be 0.07. As for U26C A91U A129G, the figure is 1.16. As to A24U A54U A67G A82U U103A, the self-cleavage came out at 0.26. For G28A A56G A91U, the self-cleavage was found to be 2.07. A27U A92G U120C A125G: the self-cleavage was 0.23. Regarding C25A U43A A116G, the self-cleavage was found to be 1.07. As for A27G A30G U38C U39C A78C, the figure is 0.35; as for A24G A82U A91G, 0.15.

For the variant A24G G44U A117G U139G, the self-cleavage was 0.72. Turning to U26C A52U A66U U72A U102A A118G, the self-cleavage came to 0.02. The result for A27G G41U A89G reads 0.82; that for A24G U100C U127C, 1.72.

Turning to A27G A59C A140G, the self-cleavage stood at 1.19. Take U26C A60G U133C: the self-cleavage was determined as 1.02. Regarding A27G U57C U124A, the self-cleavage was 0.75. As for A27G U57C U124C, the self-cleavage came out at 0.49. For A27G A94U A114G, the self-cleavage is 0.37. As for U26A G83U A95G, the self-cleavage worked out at 0.25. On to A27C U43A A78G, for which the self-cleavage was found to be 0.6. As for U26C A67U C112U C128A, the figure is 0.05. For the variant U26C A36U A51G A60G, the self-cleavage amounted to 1.47. Regarding C25U A78U U100C, the self-cleavage amounted to 0.8.

As for A24G U57C C71U A86U, the self-cleavage was 0.29.

Turning to U26G A55G A116G, the self-cleavage was 0.46. A24G U37C A51U G84A A117G U131C: the self-cleavage was found to be 1.45. As for A27G U39C A52G, the figure is 0.95; as for A24U U38C A86G U100C, 1.7. As for A24G U37C U43A A47G U72A A95C, the figure is 0.19; as for A27G U37C G48A A67G U103C U108C A116G A117G U139C, 0.

In the case of A24G A91C U120C A140U, the self-cleavage stood at 0.35. Consider U26C A27G A78G, for which the self-cleavage came out at 0.39.

Turning to A27U A55G A90G, the self-cleavage turned out to be 1.1.

As to A24U U39C A59G A111U U122C, the self-cleavage was 0.07. Consider G28U A92G U100C A111G A117G A126C, for which the self-cleavage was found to be 0.01. Turning to A24U U38C U127C U133C, the self-cleavage stood at 1.99.

As to U26C A47U A62G A63G A82G A90G U122A, the self-cleavage worked out at 0.2. The result for A24G U37C U131A reads 1.37. With A24G A86G U87C A110U U139C, the self-cleavage turned out to be 0.31. On to A24G U39A A67G A118G, for which the self-cleavage amounted to 1.2. As for A24U U39C A52G, the figure is 1.07; as for C25U A92G U131C, 1.11.

Regarding A27U U43C A67G U72C U87A A96G U132G U139A, the self-cleavage came to 0.15. As for U26C G41A A68G, the figure is 2.03. In the case of U26C U87C C112U, the self-cleavage is 0. With A27G A51G A56G A67G A78G A89G U108C U133C, the self-cleavage turned out to be 0.02. Regarding U26C A51G A52G A56U A94G A95G U122C U133C, the self-cleavage worked out at 2.24. In the case of U26C U37C U103C, the self-cleavage stood at 0.94. For the variant A27G A91G A110U, the self-cleavage came out at 0.67. As to A24G U103C A129U, the self-cleavage is 0.77. Consider A24U A114G A126G, for which the self-cleavage amounted to 0.18. Take A24G U26A A67G A90G U108C U122A: the self-cleavage came to 0.01. Consider A24G C46U A52G U70C, for which the self-cleavage turned out to be 0.29. As to A24U C45A U100C, the self-cleavage was 2.07. On to A24G U39C U97C, for which the self-cleavage was 1.34. As for A24G C61U U108A A126G, the figure is 0.04; as for G28A A98G A111U U127C, 0.01. Consider U26C A69G U103C A126G, for which the self-cleavage came to 0.47. As for A24U U26C A51G, the figure is 1.39. Take A27G U57C U103C: the self-cleavage worked out at 0.05. Regarding A27G A59C A116G, the self-cleavage came to 1.13. As for A24G A82G A95G, the self-cleavage stood at 0.31. In the case of U26C U70A U130C, the self-cleavage was 0.63. On to A24G U39C U72C U97C U130C, for which the self-cleavage came to 0.01. Regarding U26G A47G U49A A86G A111C, the self-cleavage was 0.03.

A27G U72C A90U C107U: the self-cleavage was found to be 0.04. Consider A24G A118G U130C, for which the self-cleavage came to 0.24. For the variant A24G U43C U49C A67G A78U A111G U131C, the self-cleavage is 0.01. For A24G A118G U122C, the self-cleavage came out at 1.97. Consider A27G A36G A126G U132C, for which the self-cleavage was 1.02.

With A27G U43C A54G A60G A82U, the self-cleavage amounted to 0.13. Turning to A24U A82U U103C, the self-cleavage is 0.1. As to G29A A51U U108C, the self-cleavage was determined as 0.02. As for A27U A78G U103C A125G, the figure is 0.01; as for G28A A82G A110C A111G, 0.01; as for A24G G53U A55G A91G, 0.84.

As to A24G U72A A95C, the self-cleavage is 0.1. As to A27G A63G U108C G115U U130A, the self-cleavage amounted to 0.

A24U U39C U100A: the self-cleavage is 0.58.

For the variant U26C U49C A64U A96G, the self-cleavage is 1.06.

For U26A U39C A69G A110G, the self-cleavage worked out at 0.08.

Regarding U26A A30G U133G, the self-cleavage worked out at 1.76. The result for A24U A33G U57C A67G G74U A111G reads 0.02; that for A24G C46U A126G, 0.71.

As for U26C A110G U122C U132A, the self-cleavage came to 0.06. Regarding A24U U49A U130C, the self-cleavage stood at 0.7. Consider A27G G41A A78U A96G, for which the self-cleavage was 0.42. On to A24G U37C A51G, for which the self-cleavage worked out at 0.76. For the variant U26G U43C G137A, the self-cleavage stood at 1.18. In the case of U26A U37C U49C U87C A116U U124A, the self-cleavage was 0.

Take A24G A78U A96G C107U: the self-cleavage was determined as 0.01. With A27G U37C U39A U49C A69G A90G, the self-cleavage worked out at 0.96. Take A24G U37C A69G G115U: the self-cleavage was found to be 0.

With A24G U39C A60G A96G, the self-cleavage was 1.67.

Turning to A27G A52G U97C C105U A135U, the self-cleavage was 0.1. On to A27G A60G A66G A94G A95G, for which the self-cleavage is 0.99. U26C A134U U139C: the self-cleavage worked out at 1.27. For the variant U26C A78G C109U A140G, the self-cleavage is 0.1. Take U26C C40U U43A A51G U100C: the self-cleavage turned out to be 1.56. The result for A27U A30G A33U A78U reads 0.55.

Turning to A24G U38C A56G A96G, the self-cleavage is 1.09.

Turning to U26C U49C A54G A64G A91G U100C, the self-cleavage was found to be 2.15. Consider A24G A98U U100C, for which the self-cleavage stood at 2.56. Regarding A27G A82G U120A, the self-cleavage turned out to be 0.58. Turning to A27U U37C U122C A129G U133C, the self-cleavage was 0.75. On to A27G A118G U130C, for which the self-cleavage was 0.84. As for A27G A30U A51G U108C, the figure is 0.04; as for A24G C46A A66G A82G A86U A135C, 1.08.

C25A U103C A111U A118G U132C: the self-cleavage is 0.02. As to U26C A56G A116G, the self-cleavage is 0.97. As for A27U U38C C107A, the figure is 0.01; as for A24G U70C U124C, 0.36; as for A24G A110G A125U, 0.55.

For A27G U39C A55U A117C, the self-cleavage is 0.24. Regarding C25A A52G U102C A126G A134G, the self-cleavage amounted to 1.7. The result for U26C A55G A92G reads 0.94; that for A24G A78G A95G U132C, 0.19. For A24G A78G G84C U108A U130G, the self-cleavage came out at 0.01. As for A27G C40U A96G A140C, the figure is 1.1; as for A27G A47G A60G A63G U87C, 0.85. Take A24G U43A A66U: the self-cleavage was 1.77.

In the case of A24G U37A U108C A116G U124C, the self-cleavage came out at 0.04. The result for U26A U39C A96G A140C reads 1.64; that for A24U A86U U127C, 0.89. As to A24U A54G G75C A114U, the self-cleavage came out at 0.03. For the variant A24U A78U A96G, the self-cleavage amounted to 0.49.

In the case of A27U A33G A36G, the self-cleavage came out at 1.66. As to G29A A59G U103C, the self-cleavage came out at 0.49. Consider U26C U38A A59G A68G U87C A89C A114G A116G, for which the self-cleavage is 0.04.

Regarding A24U U122C U127A, the self-cleavage was 0.43.

For the variant A24G U39C U57C, the self-cleavage came out at 0.97. As for A27U A64U A78G U108C, the figure is 0.03. Turning to U26G U43A U72G, the self-cleavage worked out at 0.16.

On to U26C A60G A66G U122C, for which the self-cleavage worked out at 1.05. As for U26C A27G U49C A59G C112U, the self-cleavage was determined as 0.04. As for A27G A55G A67G, the self-cleavage worked out at 1.15. Regarding A24G U39A U87C, the self-cleavage was 1.34. Consider A24U U38C A66G U103C G115A A118G, for which the self-cleavage came out at 0.07.

For the variant A27U C40A U127C, the self-cleavage is 1.26.

With U26C G58U A96G U103C A125G, the self-cleavage turned out to be 0.14. With A27G A54G U72A G83A, the self-cleavage stood at 0.15.

Consider U26A A47G A55G A60G, for which the self-cleavage was 0.78. As for U26A U39C A78U A89U A94C A96U U127C, the figure is 0.04. The result for A24U A30G A96G reads 1.78.

As for A24G A114G A126G U131A, the self-cleavage came to 0.41. As to A27G U87C U122C G137A, the self-cleavage is 0.49. For U26A A54G A95G A126G, the self-cleavage came to 1.15.

On to U26C U37C U133C A134U, for which the self-cleavage is 1.79.

As to A27G A95G A98G A118G U122C U139C, the self-cleavage came out at 1.55. For A24G A91G A98U, the self-cleavage is 1.54. As for A24G A95U A111G, the self-cleavage amounted to 0.01. Consider U26G U39A U49C A64G A67G U108C, for which the self-cleavage came to 0.

In the case of A24U A55U U124C, the self-cleavage is 0.26. Take A24G U43C A91G A116G U130C: the self-cleavage stood at 0.62. In the case of A24G U49C A51U A55G A56G, the self-cleavage was found to be 0.89. As for A24G A86U A92G U132C, the figure is 1.16.
